These results are taken from publication PMC6212790.

The other results are listed elsewhere or left out. At the low end of the ranking, values are background and their order means little.

The assay deals with T1, GST-Rok-C97-191 (UniProt O34857).
T1 sequence: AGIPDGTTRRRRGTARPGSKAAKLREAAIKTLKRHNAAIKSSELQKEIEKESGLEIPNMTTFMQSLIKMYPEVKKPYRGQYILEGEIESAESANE
Briefly: protein binding microarray.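 Note: rank score from −0.5 (least bound) to 0.5 (best bound).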 The conditions noted are these: Rok is a gene silencer of Bacillus subtilis; high values mean tight binding; most listed sequences are background and not binding sites; double strand, one strand shown.
GGCGCTTA showed a binding signal of -0.0748 E-score.

Sequence AGTTGTGC had a binding signal of 0.0787 E-score.

The sequence TATACCGA gave a binding signal of 0.186 E-score.

ATCAGAAA gave a binding signal of 0.0239 E-score.

ACGAGTCC gave a binding signal of -0.207 E-score.

AGGGCGGC came in with a binding signal of -0.386 E-score.

Sequence CATGGCAA registered a binding signal of -0.0505 E-score.

AGCCGATC gave a binding signal of -0.169 E-score.

Sequence GCTGCCCA came in with a binding signal of 0.0455 E-score.

In turn, AGAAAGGC gave a binding signal of -0.124 E-score.

As to ATTAGGTC, the binding signal stood at 0.152 E-score.

With AATACTAG, the binding signal was found to be 0.34 E-score.

The sequence CCACCCTC gave a binding signal of -0.237 E-score.

Sequence AACCAGCA showed a binding signal of 0.0878 E-score.

For the sequence TACGGTAA, the binding signal was determined as 0.302 E-score.

Take CCGTGCCC: the binding signal was -0.331 E-score.

Regarding CACGACTG, the binding signal was -0.00937 E-score.

The sequence CATCGCAG displayed a binding signal of -0.272 E-score.

With GCCCTTGA, the binding signal is -0.305 E-score.

CGGTATTC returned a binding signal of 0.238 E-score.

For AGAGTGGA, the binding signal was -0.126 E-score.

As to TACGGGAA, the binding signal was 0.101 E-score.

GGACTGAC gave a binding signal of -0.315 E-score.

In the case of CGCCGGAA, the binding signal was -0.152 E-score.

The sequence ATTCGTAC had a binding signal of 0.123 E-score.

Turning to AATTTAGT, the binding signal was found to be 0.165 E-score.

Regarding CTGATAAA, the binding signal was 0.157 E-score.

CAGGCATA: the binding signal was -0.074 E-score.

With ACTCGTCG, the binding signal was -0.0388 E-score.

The sequence CTTCATCC returned a binding signal of -0.00446 E-score.

GTAAACTA displayed a binding signal of 0.364 E-score.

On to AATATACC, for which the binding signal was 0.353 E-score.

Turning to CGCTGTCA, the binding signal was -0.169 E-score.

Consider GATGGGGA, for which the binding signal is -0.101 E-score.

CAACCTCA registered a binding signal of 0.00314 E-score.

As for CGTACCCA, the binding signal is 0.107 E-score.

CACGAGGC showed a binding signal of -0.272 E-score.

Sequence TCGAAGCA displayed a binding signal of -0.0421 E-score.

Turning to TGCGGGAA, the binding signal was -0.161 E-score.

AACTGTGG yielded a binding signal of 0.0108 E-score.

The sequence GCGATCCC had a binding signal of -0.213 E-score.

As to AGTCAGCC, the binding signal was -0.112 E-score.

The sequence CGTATATA had a binding signal of 0.258 E-score.

In turn, ATTCCTAC displayed a binding signal of 0.168 E-score.

In turn, TTGGCAAA gave a binding signal of -0.0942 E-score.

GGATCCTA displayed a binding signal of -0.119 E-score.

The sequence AGACCCCG gave a binding signal of -0.258 E-score.

With AACGGTAG, the binding signal is 0.286 E-score.

On to AGCACTAG, for which the binding signal is -0.0264 E-score.

Sequence AGGAATCC yielded a binding signal of -0.102 E-score.

AGGTTGGC registered a binding signal of 0.0659 E-score.

In turn, ACTTTTTC had a binding signal of 0.225 E-score.

Regarding GAGGACAC, the binding signal was -0.0711 E-score.

The sequence AATGAAAC showed a binding signal of -0.0633 E-score.

CATTAACC came in with a binding signal of -0.0128 E-score.

GCGCGGTA came in with a binding signal of 0.117 E-score.

The sequence AACCAAGC had a binding signal of 0.0549 E-score.

AAAGGTGG showed a binding signal of -0.264 E-score.

Sequence AAACCTCG registered a binding signal of -0.0732 E-score.

For AAAACTTC, the binding signal came to 0.134 E-score.

Consider GGATGCCC, for which the binding signal was -0.338 E-score.

AAGCGCAG showed a binding signal of 0.0712 E-score.

The sequence TGATTCCA yielded a binding signal of 0.0212 E-score.

CCGAACGG came in with a binding signal of -0.212 E-score.

As to GTGCTGAA, the binding signal is 0.0378 E-score.

With ACCGAAGT, the binding signal was -0.0364 E-score.

On to ATGACGCG, for which the binding signal is -0.0869 E-score.

Consider GTCTAGCA, for which the binding signal is -0.0188 E-score.

Sequence CGGTACCC gave a binding signal of -0.179 E-score.

Consider GGGAGAGA, for which the binding signal was -0.106 E-score.

Turning to CTGATTAA, the binding signal is 0.165 E-score.

For the sequence AATGAAGA, the binding signal is -0.000427 E-score.

For GGAAAAAC, the binding signal was determined as 0.0784 E-score.

Sequence CTGCTTAA registered a binding signal of -0.0673 E-score.

GAGATGCC had a binding signal of -0.0569 E-score.

Sequence CAGAGGCA showed a binding signal of -0.089 E-score.

Consider AATTCCCC, for which the binding signal came to 0.0648 E-score.

With GTTTATTA, the binding signal worked out at 0.235 E-score.

As to AAGATCTG, the binding signal was 0.0648 E-score.

In the case of AGAGTAGC, the binding signal amounted to 0.0737 E-score.

In turn, GTCAAGAC had a binding signal of -0.155 E-score.

In the case of CAGCCTAA, the binding signal was -0.0373 E-score.

In the case of ATGTGTGG, the binding signal worked out at 0.0571 E-score.

Take CTGCCCTC: the binding signal is -0.285 E-score.

GTGATTGA: the binding signal was -0.0754 E-score.

As to ATGAGCTG, the binding signal was -0.0863 E-score.

Regarding AGGAGACT, the binding signal was -0.209 E-score.

The sequence CTGAATTA showed a binding signal of 0.176 E-score.

As for CGACGGCG, the binding signal was -0.25 E-score.

AAGGAGCT displayed a binding signal of -0.074 E-score.

In the case of ACGGACAT, the binding signal is -0.0295 E-score.

On to ACTTGACA, for which the binding signal was 0.0993 E-score.

The sequence AATGACTG registered a binding signal of 0.0506 E-score.

In turn, CAGTCTCC came in with a binding signal of -0.233 E-score.

For AATATGAT, the binding signal stood at 0.213 E-score.

For the sequence AAATGTCT, the binding signal came out at 0.109 E-score.

CCCAGAGA returned a binding signal of -0.0676 E-score.

For the sequence GATCTAGC, the binding signal amounted to 0.218 E-score.

As to GCCCAAGA, the binding signal was -0.255 E-score.

ACTACTCC: the binding signal amounted to 0.273 E-score.

CATCATCG had a binding signal of -0.141 E-score.

Sequence CGCTAACC returned a binding signal of -0.133 E-score.

For CTGAATTC, the binding signal is -0.15 E-score.

On to AGACCATG, for which the binding signal was -0.132 E-score.

CAGTTCCC showed a binding signal of -0.138 E-score.

In turn, CAAGCCAA yielded a binding signal of -0.0364 E-score.

In turn, GATAACGA had a binding signal of 0.0698 E-score.

Turning to AGTTCTAC, the binding signal was determined as 0.386 E-score.

In turn, TCGCGCGA gave a binding signal of 0.0974 E-score.

In turn, GGGAGGCA had a binding signal of -0.214 E-score.

The sequence AATCTTGA had a binding signal of -0.0166 E-score.

In turn, GTCCCTAA returned a binding signal of -0.0476 E-score.

On to ATATACCA, for which the binding signal came to 0.344 E-score.

For AGCGACTG, the binding signal was -0.0115 E-score.

CCCGAGAG gave a binding signal of -0.232 E-score.

Take CGTTAACG: the binding signal was 0.0189 E-score.

On to GTTATGTA, for which the binding signal was 0.292 E-score.

GGGCGAGA had a binding signal of -0.0841 E-score.

As to ACATGATA, the binding signal was 0.245 E-score.

ATCTTGGA displayed a binding signal of 0.0959 E-score.

AAGTCGCT returned a binding signal of 0.00124 E-score.

On to AGAGGCTA, for which the binding signal is -0.118 E-score.

AGCTTTAA: the binding signal was 0.229 E-score.

AGGACAGG returned a binding signal of -0.0962 E-score.

In the case of CGCGTCAA, the binding signal was -0.0156 E-score.

The sequence CGGATCAA had a binding signal of -0.0523 E-score.

As to TAGATCAA, the binding signal turned out to be 0.156 E-score.

ACATATAG: the binding signal came to 0.206 E-score.

In turn, CAAAGTGA returned a binding signal of -0.0177 E-score.

Take CGCAATGA: the binding signal amounted to 0.0293 E-score.

As to CTACCTAA, the binding signal worked out at 0.174 E-score.

Turning to CCGGAGGC, the binding signal was -0.356 E-score.

In turn, ACGTTCCG displayed a binding signal of -0.233 E-score.

Sequence GTCACATA registered a binding signal of 0.116 E-score.

In the case of AAAGAATC, the binding signal amounted to 0.031 E-score.

In turn, AGTCACGC yielded a binding signal of -0.258 E-score.

Sequence CAGAGGTC displayed a binding signal of -0.266 E-score.

Consider CGTGAGTA, for which the binding signal came out at 0.0315 E-score.

As to TAGCTCGA, the binding signal is 0.126 E-score.

In the case of GCATGAGA, the binding signal was -0.0679 E-score.

The sequence GCGACTGA yielded a binding signal of -0.0717 E-score.

With GACAACGC, the binding signal was -0.201 E-score.

ACCCAGTA gave a binding signal of 0.0467 E-score.

Sequence GCGTTTTA gave a binding signal of 0.0397 E-score.

Consider CCTGCATC, for which the binding signal is -0.169 E-score.

CAGCGTGA showed a binding signal of -0.143 E-score.

As to ACAGCACT, the binding signal was -0.14 E-score.

Sequence CGGGATAG registered a binding signal of -0.0175 E-score.

In turn, CCTCTGAA showed a binding signal of -0.157 E-score.

In turn, GCGGACGA had a binding signal of -0.188 E-score.

Turning to AAAAGTTC, the binding signal worked out at 0.174 E-score.

Sequence ACTTTATA returned a binding signal of 0.195 E-score.

On to CATAACTA, for which the binding signal turned out to be 0.266 E-score.

GCCCATCC came in with a binding signal of -0.211 E-score.

In turn, TAAGCACA came in with a binding signal of -0.0818 E-score.

As for CCGGCCCG, the binding signal was -0.252 E-score.

Consider CTATGTTC, for which the binding signal was -0.118 E-score.

As for ACTCTCCC, the binding signal is -0.157 E-score.

For GTACCATA, the binding signal came out at 0.362 E-score.

The sequence AACTAATT came in with a binding signal of 0.344 E-score.

As to GATATGTA, the binding signal worked out at 0.303 E-score.

In turn, CATGACAC came in with a binding signal of -0.18 E-score.

With ACCGGAGC, the binding signal was -0.0944 E-score.

CCACCGCC registered a binding signal of -0.169 E-score.

The sequence GATACTGA had a binding signal of 0.0663 E-score.

Consider CGCGACGA, for which the binding signal was -0.141 E-score.

In turn, CTAACATA came in with a binding signal of 0.129 E-score.

GGAATGAA came in with a binding signal of -0.129 E-score.

In the case of GGAGTTCA, the binding signal was -0.0356 E-score.

For the sequence AACCGCGC, the binding signal is -0.221 E-score.

Consider TCTCAGCA, for which the binding signal is -0.0432 E-score.

Sequence AGAACACA registered a binding signal of 0.145 E-score.
